# Measurements reported in paper PMC6919601, “Identification of Plasmodium dipeptidyl aminopeptidase allosteric inhibitors by high throughput screening” (PLoS ONE, 2019).
# Screen size: about 110,000 compounds; about 230 (0.21%) showed an effect of 50% or more. This is one part of the list.
# Molecular target: DPAP1 (Plasmodium falciparum, UniProt Q8IIJ9)
# Assay: primary screen, percent inhibition; read by cleavage of a fluorogenic dipeptide substrate; higher = more effect of the substance
# Set-up: species or system P. falciparum D10 trophozoite lysates; single well
# 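Also: 30 min substrate incubation versus DMSO and 10 µM JCP410 controls.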
# Chain of DPAP1 (Q8IIJ9 whole entry, looked up): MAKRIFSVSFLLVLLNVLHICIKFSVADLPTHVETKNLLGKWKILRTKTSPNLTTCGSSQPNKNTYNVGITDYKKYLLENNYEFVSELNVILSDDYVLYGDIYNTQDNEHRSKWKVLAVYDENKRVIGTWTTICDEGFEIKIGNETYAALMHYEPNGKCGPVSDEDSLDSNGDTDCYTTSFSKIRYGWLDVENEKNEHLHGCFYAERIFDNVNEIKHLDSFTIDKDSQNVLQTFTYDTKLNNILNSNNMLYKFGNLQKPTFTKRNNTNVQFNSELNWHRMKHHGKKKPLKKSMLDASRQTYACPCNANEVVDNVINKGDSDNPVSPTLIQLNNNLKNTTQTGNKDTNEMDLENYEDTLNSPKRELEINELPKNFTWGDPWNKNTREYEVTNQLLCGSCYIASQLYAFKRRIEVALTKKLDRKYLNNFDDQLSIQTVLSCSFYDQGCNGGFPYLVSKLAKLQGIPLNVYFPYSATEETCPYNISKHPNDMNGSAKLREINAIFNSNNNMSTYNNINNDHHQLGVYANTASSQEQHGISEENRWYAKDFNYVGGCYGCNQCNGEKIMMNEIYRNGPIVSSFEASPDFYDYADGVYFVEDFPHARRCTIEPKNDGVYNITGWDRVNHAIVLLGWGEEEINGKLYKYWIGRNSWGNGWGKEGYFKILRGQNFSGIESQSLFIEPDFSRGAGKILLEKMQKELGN
row,Structure (SMILES),% Inhibition @ 10 uM
1,CC(C)=CCCC(C)CN1CCN(c2ccc(Cl)cc2)CC1 (stereo not drawn),-7.91%
2,O=C(Nc1ccc(Cl)c(Cl)c1)OCCNS(=O)(=O)c1cccc([N+](=O)[O-])c1,11.6%
3,COc1ccc(Cl)cc1NC(=O)c1ccc(N(C)S(=O)(=O)c2ccc(C)cc2)cc1,0.145%
4,Oc1nc(NC2CCCCC2)nnc1Cc1ccc(Cl)cc1,-3.78%
5,C=CCO/C(O)=C1/C(C)=Nc2ncnn2C1c1cccs1 (stereo not drawn),-1.62%
6,CC(C)(C)Nc1nc(-c2ccccc2O)nc2ccccc12,-2.19%
7,CCCC1CCC(c2ccc(C#N)c(O)n2)CC1 (stereo not drawn),-3.44%
8,COc1cc(/C=C2\C=C(c3ccc(Cl)cc3)OC2=O)cc(Br)c1OC,3.72%
9,CC1(C)Oc2ccc3ccc(=O)oc3c2C/C1=N\O,0.467%
10,CN1CCN(C(=O)c2ccccc2N(Cc2ccccc2)S(C)(=O)=O)CC1,-3.68%
11,CCCOc1ccc(C2C(=O)N(C3CCCCC3)CC(=O)N2Cc2ccccc2)cc1OC (stereo not drawn),-7.73%
12,COc1ccc(/C=C2\CS/C(=C\c3ccc(OC)c(OC)c3)C2=O)cc1OC,5.74%
13,Cc1nc(SCc2cccnc2)c(C#N)cc1C(=O)O,4.47%
14,CC(NC(=O)Cc1nn[nH]n1)c1ccccc1 (stereo not drawn),-5.93%
15,Nc1c2c(nc3ccccc13)N(Cc1ccccc1)CC2,-4.21%
16,c1ccc(N(c2ccccc2)c2nc(N3CCOCC3)nc(N3CCOCC3)n2)cc1,0.968%
17,O=C(NS(=O)(=O)c1ccc(Cl)s1)c1ccccc1,-3.33%
18,COCCNC(=O)CCNS(=O)(=O)c1ccc(C)cc1,-0.256%
19,CCO/C(O)=C1\C(C)=NC(C)=C(C(=O)OC)C1c1ccc([N+](=O)[O-])cc1 (stereo not drawn),1.43%
20,Cc1cc(C)cc(CC(C(=O)NCc2ccccc2)C(C)C(=O)O)c1 (stereo not drawn),12.9%
21,COc1cc(CNC(C)c2ccccc2)cc(Cl)c1OCC(N)=O (stereo not drawn),-2.74%
22,Cc1ccc(-c2onc(C)c2C)cc1S(=O)(=O)N1CCC(N2CCCCC2)CC1,-2.81%
23,COc1ccc(S(=O)(=O)N2CCN(c3ccc(C)cc3C)CC2)c2ccccc12,-2.66%
24,O=c1oc2ccccc2c(NCc2ccccc2)c1CN1CCCCC1,1.42%
25,COc1ccc(C2C(C(=O)Nc3ccccc3C)=C(C)Nc3nc(CCCO)nn32)cc1OC (stereo not drawn),-3.39%
26,N#CC1=C(N)Oc2[nH]nc(-c3cccc4ccccc34)c2C1c1cccc(O)c1 (stereo not drawn),0.562%
27,CC(C)CCn1c(=O)c2ccccc2n2c(CCC(=O)NCCCN3CCOCC3)nnc12,3.54%
